In all, about 46,000 compounds went through this assay and about 60 (0.1%) were called active. Roughly 3% stayed inconclusive and do not appear here. The call rests on the fitted dose curve; in most records, active means well fitted inhibition curve with a large enough effect; inconclusive means small, poorly fitted or top-dose-only effect; inactive means no such curve, though single readings can be large or run the other way. The list shows a part of the results.

Results on 47 compounds are retold here after PubChem BioAssay AID1963576 (National Center for Advancing Translational Sciences (NCATS), 2024).

This assay in a line: Primary qHTS assay for Inhibitors of ovarian cancer metastasis using an organotypic tumor microenvironment (TME) model. Further: nearly all actives have a fitted effect of over 65% in size.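 On activity change, negative = inhibition: plate controls were DMSO wells for no effect and tomatine positive control wells for full effect.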 The note with it: SKOV3ip1-GFP adhesion/invasion on 3D omental model, fluorescence; series mostly up to 45.8 µM; activity change, negative = inhibition: at the top concentration. An outline of the steps:
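qHTS, 4-pt dose (0.36-46 umol/L); SKOV3ip1-GFP, 1,200 cells/well, no FBS; primary omental fibroblast/mesothelial co-culture 48 h pre-grown; 2 h RT + 16 h 37 C; PBS wash, 4% PFA; GFP count 488/509 nm.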
(In general: In qHTS, concentration-response curves come from the screen itself.)
For the compound `Cc1ccc(NC(=O)Cn2cc(C(=O)C3CC3)c3ccccc32)cc1C`, the “activity change, negative = inhibition” value is inactive: -41.3%.

Turning to `Cc1cccc(NC(=O)c2cc(S(=O)(=O)N3CCCCCC3)cn2C)c1C`, the result was inactive. Turning to `Cc1cc(C)n(-c2nc(C)c(C)c(=O)n2CC(=O)Nc2ccc(OC(F)(F)F)cc2)n1`, the call was inactive. On to `COc1ccc(OCc2nc(-c3ccc(-n4cccc4)cc3)no2)cc1`, for which the “activity change, negative = inhibition” value is inactive: -8.62%. Turning to `Cc1ccccc1CSc1ccc(-c2cccs2)nn1`, the “activity change, negative = inhibition” value was inactive: 8.65%. On the same count and under the same terms, as for `O=C(NCC(c1cccs1)S(=O)(=O)c1cccs1)c1cccc(F)c1` (configuration not stated), the figure is inactive: 34.3%. `Cc1ccc(CNC(=O)c2ccc(Cn3c(=O)c4ccccc4n(CC(=O)Nc4c(C)cc(C)cc4C)c3=O)cc2)cc1`: the outcome was inactive.

For the compound `COc1ccc(-c2nc3ccccc3n3c(-c4ccccc4)c4c(=O)n(C)c(=O)n(C)c4c23)cc1OC`, the “activity change, negative = inhibition” value is inactive: -3.81%. The same measure, in the same setting: as for `O=c1oc2c3c(ccc2c2ccccc12)OCN(Cc1ccc(Cl)cc1)C3`, the figure is inactive: -10.4%; as for `COc1ccc(OC)c(-n2nnc(-c3nc(-c4cc(OC)c(OC)c(OC)c4)no3)c2C)c1`, inactive: -0.0608%; as for `c1cnc(N2CCN(c3ncc4c(n3)CCNC4)CC2)nc1`, inactive: 8.72%. On to `COCCn1c(=O)[nH]c2cc(C(=O)N3CCN(c4ccccc4)CC3)ccc2c1=O`, for which the result was inactive. With `COc1ccc(-n2nnnc2C2CCN(S(=O)(=O)c3ccc(C)cc3)CC2)cc1`, the “activity change, negative = inhibition” value was inactive: -6.47%. Same read-out and setting: the result for `COc1cc2c(cc1OC)C(COc1ccc3c(C)cc(=O)oc3c1)N(C(=O)c1ccccc1C)CC2` (configuration not stated) reads inactive: 0.673%. For the compound `O=C(NCc1ccccc1)c1cccn1-c1nnc(N2CCCC2)s1`, the compound was called inactive. Consider `CC(=O)N1c2ccccc2C(C)(c2ccc(C)cc2)CC1(C)C` (configuration not stated), for which the “activity change, negative = inhibition” value was inactive: -5.97%. On the same count and under the same terms, as for `CN1C(=O)c2ccccc2Sc2ccc(NC(=O)N3CCN(c4ccccc4)CC3)cc21`, the figure is inactive: -29.9%; as for `O=C(O)C=Cc1ccc(O)c(O)c1`, inactive: -24.9%; as for `Cc1ccc(-c2ccc(CCC(=O)O)n2-c2ccc(C(N)=O)cc2)cc1`, inactive: 7.63%. Same read-out and setting: as for `NC(=O)CSc1ncc2c(n1)-c1ccccc1N(Cc1ccc(F)cc1)S2(=O)=O`, the figure is inactive: 1.97%; as for `CC1=C(c2ccc(C)cc2)S(=O)(=O)N(Cc2ccc(C(=O)Nc3ccc(C)c(F)c3)cc2)C1=O`, inactive: -5.18%; as for `CCOc1ccc(C(=O)Nc2ccc3nc(SCC(=O)N4CCc5ccccc54)sc3c2)cc1`, inactive: -5.92%.

As to `CC(=O)N1CCc2cc(S(=O)(=O)NC(Cc3ccccc3)C(=O)Nc3cc(C)ccc3C)ccc21` (configuration not stated), the “activity change, negative = inhibition” value was inactive: -1.84%. `CCOc1ccc(CNC(=O)c2nn(-c3ccc(OC)cc3)c(=O)c3c2c2ccccc2n3C)cc1`: the compound was called inactive.

Take `Cc1cc(C)c2oc(-c3ccc(Cl)c(NC(=O)c4cccs4)c3)nc2c1`: the “activity change, negative = inhibition” value is inactive: 33.5%.

In the case of `CCn1cc(C(=O)NCCCOC)c(=O)c2cc(S(=O)(=O)N3CCc4ccccc4C3)ccc21`, the compound was called inactive. Regarding `COc1ccccc1NC(=O)c1cnc(SCC(=O)N2CCOCC2)n(C)c1=O`, the “activity change, negative = inhibition” value was inactive: -13.9%. In the case of `COc1ccc2c(c1)c1c(c(=O)n(Cc3ccccc3)c(=O)n1Cc1cccc(Cl)c1)n2C`, the compound was classed as inactive. As to `COc1ccc(-c2cc3ccc(O)c(CN4CCCC4)c3oc2=O)cc1`, the “activity change, negative = inhibition” value is inactive: -7.74%.

For the compound `Cc1ccc(-c2c(C(=O)NCCc3ccccc3)oc(=O)c3ccccc23)cc1`, the “activity change, negative = inhibition” value was inactive: -9.85%. Still for that read-out and setting: the result for `CCCSc1nc(-c2ccccc2)[nH]c1S(=O)(=O)c1ccc(C)cc1` reads inactive: 7.75%; that for `COc1ccc(-c2n[nH]c3c2cnc2ccc(F)cc23)cc1`, inactive: -1.64%. For the compound `Cc1cc(C)cc(NC(=O)C2CCN(S(=O)(=O)c3cn(C)cn3)CC2)c1`, the “activity change, negative = inhibition” value is inactive: 26.4%. The same measure, in the same setting: the result for `O=c1oc2ccc3ccccc3c2cc1-c1nnc(Nc2ccccc2F)s1` reads inactive: -3.68%. With `CCOC(=O)C1CCCN(CC(=O)Nc2cc(C)c3c(=O)oc4ccccc4c3n2)C1` (configuration not stated), the call was inactive.

Take `CCCOc1ccc(C2C(=O)N(C3CCC(C)CC3)CC(=O)N2Cc2cccc(OC)c2)cc1OC` (configuration not stated): the “activity change, negative = inhibition” value is inactive: 4.63%. Still for that read-out and setting: the result for `COc1ccc(NS(=O)(=O)c2cc3c(cc2C)N(C(C)=O)CCO3)cc1` reads inactive: -5.69%. Consider `Cn1cc(S(=O)(=O)N2CCCCCC2)cc1C(=O)Nc1ccc(Cl)c(C(F)(F)F)c1`, for which the call was inactive. For the compound `CC1=Nc2cc(C(=O)N3CCC(C)CC3)ccc2Sc2ccc(Cl)cc21`, the “activity change, negative = inhibition” value is inactive: -4.08%. Take `CCc1cccc(C)c1NC(=O)Cn1nnc(-c2nc(-c3ccccc3F)no2)c1N`: the “activity change, negative = inhibition” value is inactive: -9.84%. On the same count and under the same terms, the result for `Cc1cc2c(cc1NS(=O)(=O)c1cccc(C#N)c1)n(C)c(=O)c(=O)n2C` reads inactive: 4.39%. With `COc1ccc(CCNC(=O)c2ccc(Cn3c(=O)c4ccccc4n(Cc4cccc(F)c4)c3=O)cc2)cc1OC`, the outcome was inactive. For the compound `CCc1ccc(NC(=O)C2CCCN2S(=O)(=O)c2ccc3c(c2)CCCC(=O)N3)cc1` (configuration not stated), the outcome was inactive. For `COc1ccc(Cl)cc1S(=O)(=O)NCc1ccc2c(c1)CCN2C(=O)c1cccc(C)c1`, the “activity change, negative = inhibition” value is inactive: -8.97%. The same measure, in the same setting: the result for `CC(C)c1ccc(C2NC(=O)c3n[nH]c(-c4cccs4)c32)cc1` (configuration not stated) reads inactive: -0.615%. Regarding `CCn1c(=N)c(C(=O)NCc2ccccc2)cc2c(=O)n3cccc(C)c3nc21`, the result was inactive. For `Cc1cc(CN2CCN(c3c(Br)cnc4nc(-c5ccc(N6CCN(C)CC6)cc5)[nH]c34)CC2)no1`, the “activity change, negative = inhibition” value is inactive: 2.81%.
